{"source": "PubChem BioAssay AID1814", "about": "(Broad Institute, 2009)", "note": "Hit rate of the full screen: of about 300,000 compounds, about 22,000 (7.3%) were called active. This list was built around the results that the source calls inconclusive (neither active nor inactive); the mix of calls is not that of the screen. Cut-off read from the data, not from the text of the source: active = activity score below about -60%; inconclusive = mostly about -28% to -61%; inactive = positive scores.", "data": [{"assay": "Activators via SNCA 5'UTR binding, MLPCN (AID 1814)", "conditions": "alpha-synuclein 5'UTR reporter, activators screen; hits give low values; tested at 7.5 µM", "values": [{"compound": "Brc1ccc(Oc2nsnc2N2CCOCC2)cc1", "activity score": "inconclusive: -52.7%"}, {"compound": "N#Cc1c(-c2ccccc2)cc2nc3ccccc3n2c1N", "activity score": "inconclusive: -59.3%"}, {"compound": "Cc1ccccc1CSCC(=O)N1CCN(c2ccccc2)CC1", "activity score": "inconclusive: -37.8%"}, {"compound": "COc1ccc(-c2ccc(SCC(=O)Nc3cc(C)on3)nn2)cc1OC", "activity score": "inconclusive: -41.3%"}, {"compound": "CCN(CC)CCN(C(=O)/C=C/c1cccs1)c1nc2ccc(Cl)cc2s1", "activity score": "inconclusive: -50.8%"}, {"compound": "O=C(N/N=C/c1c[nH]c2ccccc12)C1COc2ccccc2O1", "note": "(stereo unspecified)", "activity score": "inactive: 75.6%"}, {"compound": "Cn1cc(/C=C/c2cc[n+](C)cc2)c2cc(Cl)ccc21", "activity score": "inactive: 63.8%"}, {"compound": "Cc1cccc(C(=O)N/N=C/c2ccccn2)c1", "activity score": "inconclusive: -50.5%"}, {"compound": "COCC(=O)Nc1ccc(C(=O)Nc2ccccc2Cl)cc1", "activity score": "inconclusive: -56.8%"}, {"compound": "Cc1ccc(C2CC(c3ccco3)=NN2S(C)(=O)=O)cc1", "note": "(stereo unspecified)", "activity score": "active: -62.6%"}, {"compound": "CCc1cc(-c2n[nH]c(C)c2-c2nc(C)cs2)c(O)cc1OC", "activity score": "inconclusive: -46.9%"}, {"compound": "COc1cccc(Cn2c(N)c(C#N)c3nc4ccccc4nc32)c1OC", "activity score": "inactive: 52.9%"}, {"compound": "Cc1sc(NC(=O)C2CCCCC2C(=O)O)c(C(N)=O)c1-c1ccccc1", "note": "(stereo unspecified)", "activity score": "inconclusive: -60.5%"}, {"compound": "COc1ccc(CCNC(=O)c2nn(C)cc2Cl)cc1", "activity score": "inconclusive: -59.3%"}, {"compound": "O=C(CSc1nnc(-c2ccc(Cl)cc2)o1)N1CCOCC1", "activity score": "active: -154%"}, {"compound": "O=C(/C=C/c1cccc([N+](=O)[O-])c1)c1ccc2c(c1)OCCO2", "activity score": "inconclusive: -54.8%"}, {"compound": "Cc1ccc(-c2nnc(NC(=O)c3c(F)cccc3Cl)s2)cc1", "activity score": "inconclusive: -50.9%"}, {"compound": "CCCCNC(=O)CCC(=O)Nc1ccc2nc(N3CCCCC3)cc(C)c2c1", "activity score": "active: -141%"}, {"compound": "Cc1ccc2c(Cl)c(C(=O)NCC3CCCO3)sc2c1", "note": "(stereo unspecified)", "activity score": "active: -137%"}, {"compound": "O=C(Cc1cccs1)Nc1nc(-c2ccccc2)cs1", "activity score": "active: -81.2%"}, {"compound": "CC(=O)N/N=C(\\C)c1ccc2c(c1)OCCO2", "activity score": "inconclusive: -30.3%"}, {"compound": "OC1(c2ccc(Cl)cc2)CCN(Cc2cn[nH]c2-c2ccc(F)cc2)CC1", "activity score": "inactive: 60.8%"}, {"compound": "CC(=O)N(C(C)=O)c1ncc2c([nH]c3ccccc32)c1C#N", "activity score": "inactive: 64.8%"}, {"compound": "O=C(NCCN1CCOCC1)NC1(C(F)(F)F)Oc2ccc(Cl)cc2O1", "note": "(stereo unspecified)", "activity score": "inconclusive: -61.1%"}, {"compound": "S=C(NCc1ccco1)Nc1ccc(Cl)cc1", "activity score": "inconclusive: -61.1%"}, {"compound": "CCN(CC)c1ccc(/C=N/NC(=O)c2cccc(S(=O)(=O)N3CCOCC3)c2)c(O)c1", "activity score": "inactive: 129%"}, {"compound": "Cc1cc(C)n(-c2nc3c(c(=O)[nH]c(=O)n3C)n2CC(O)COc2ccc(Cl)cc2Cl)n1", "note": "(stereo unspecified)", "activity score": "inactive: 73.2%"}, {"compound": "Cc1ccc(-n2nc(C)c3c2OC(N)=C(C#N)C3c2ccc(C)o2)cc1", "note": "(stereo unspecified)", "activity score": "inconclusive: -57.6%"}, {"compound": "Cc1[nH]nc(N=CC2=C(O)CC(C)(C)CC2=O)c1-c1ccccc1", "activity score": "inconclusive: -55.9%"}, {"compound": "C/C(=C\\C(=O)c1cccnc1)Nc1ccc(C)c(C)c1", "activity score": "active: -88.7%"}, {"compound": "N#CC(C(=O)Nc1ccccc1)=C1Nc2ccccc2N1", "activity score": "inconclusive: -50.7%"}, {"compound": "Cc1ccc(NC(=O)c2ccn(C)n2)c(Br)c1", "activity score": "inconclusive: -60.2%"}, {"compound": "CC(=O)Oc1ccc(/C=c2\\sc3ncnn3c2=O)cc1", "activity score": "inconclusive: -31.8%"}, {"compound": "O=C(CN1C(=O)c2ccccc2S1(=O)=O)c1ccccc1Cl", "activity score": "inactive: 101%"}, {"compound": "CCCc1c(C)nc(N2CCN(c3ccccc3F)CC2)[nH]c1=O", "activity score": "inconclusive: -42%"}, {"compound": "CC1(C)Cc2c(sc(NC(=O)COc3cccc4ccccc34)c2C#N)C(C)(C)N1", "activity score": "inactive: 71.9%"}, {"compound": "CN1/C(=C/C(=O)c2cccs2)Sc2ccccc21", "activity score": "inconclusive: -59.2%"}, {"compound": "COc1ccc2c(c1)CCc1c(C(=O)N3CCCCCC3)noc1-2", "activity score": "active: -63.8%"}, {"compound": "Fc1ccc(Cn2nnc(-c3ccc(Cl)cc3)n2)cc1", "activity score": "inconclusive: -45.9%"}, {"compound": "CN(C)CCNc1oc(/C=C/c2ccccc2)nc1C#N", "activity score": "active: -97.9%"}, {"compound": "COc1ccccc1NC(=O)c1cc(C(=O)Nc2ccccc2OC)n(C)n1", "activity score": "inconclusive: -56%"}, {"compound": "CCOc1cc(C=O)ccc1OCCSc1ccc(C)cc1", "activity score": "inconclusive: -47.3%"}, {"compound": "O=C1/C(=C/c2cccs2)Cc2ccccc21", "activity score": "inconclusive: -52.8%"}, {"compound": "Cc1cc(N/N=C/c2c[nH]c3ccccc23)c2ccccc2n1", "activity score": "inconclusive: -60.2%"}, {"compound": "CC(=O)c1sc(NC(=O)CCOc2ccccc2)nc1C", "activity score": "inconclusive: -58.4%"}, {"compound": "Cn1ncc2c(O/N=C(\\N)c3ccc(C(C)(C)C)cc3)ncnc21", "activity score": "inactive: 104%"}, {"compound": "Nc1nnc(SCCCC(=O)c2ccccc2)s1", "activity score": "inconclusive: -60.9%"}, {"compound": "CCCCSCc1nc2ccccn2c1Br", "activity score": "inconclusive: -59.3%"}, {"compound": "Cc1ccc(-c2nc(-c3ccccn3)no2)cc1Cl", "activity score": "inactive: 104%"}, {"compound": "COCCNC(=S)Nc1ccc(Cl)c(Cl)c1", "activity score": "inconclusive: -49.3%"}, {"compound": "Cc1ccc(C(=O)NC(=S)Nc2ccc(-c3ccc(CO)o3)cc2)cc1", "activity score": "inconclusive: -59.3%"}, {"compound": "O=c1c(C=Nc2cccc(C(F)(F)F)c2)c[nH]n1-c1cccc(Cl)n1", "activity score": "active: -64.6%"}, {"compound": "COc1ccc(C(=O)NNC2=Nc3cccc4cccc2c34)cc1", "activity score": "inactive: 58.3%"}, {"compound": "CC1CN(C(=S)SCC(=O)c2ccccc2)CC(C)O1", "note": "(stereo unspecified)", "activity score": "inconclusive: -58.8%"}, {"compound": "COc1cccc(NC(=S)NNC(=O)c2ccccc2OC(F)F)c1", "activity score": "inconclusive: -38.9%"}, {"compound": "O=C1c2ccccc2C(=O)c2[nH]c(=O)[nH]c21", "activity score": "inactive: 93%"}, {"compound": "O=C(Nc1ccc(-c2nc3ccc(NC(=O)c4cccs4)cc3[nH]2)cc1)c1cccs1", "activity score": "inactive: 122%"}, {"compound": "COc1ccc(S(=O)(=O)N2CCN(c3ccccn3)CC2)cc1[N+](=O)[O-]", "activity score": "inactive: 45.5%"}, {"compound": "CC(=O)Nc1ccc(NC(=O)c2sc3nc4n(c(=O)c3c2C)CCCCC4)cc1", "activity score": "inactive: 76.3%"}, {"compound": "CCN(CC)c1ccc2cc(-c3nc4ccccc4n3C)c(=O)oc2c1", "activity score": "active: -226%"}, {"compound": "CN(C)c1nc(F)c(F)c(S(=O)(=O)c2ccccc2)c1F", "activity score": "active: -93.9%"}, {"compound": "CCOC(=O)N1CCN(C(=O)CCl)CC1", "activity score": "inconclusive: -53.8%"}, {"compound": "COC(=O)c1cc(NC(=O)Nc2cccc(Cl)c2)ccc1Cl", "activity score": "inconclusive: -52.6%"}, {"compound": "C=CCSc1ncnc2c1oc1nc3c(cc12)COC(C)(C)C3", "activity score": "active: -141%"}, {"compound": "Brc1ccc(C2=Nc3cccc4cccc(c34)N2)o1", "activity score": "active: -74.1%"}, {"compound": "Brc1ccccc1OCCCCCN1CCOCC1", "activity score": "inconclusive: -49%"}, {"compound": "COc1ccc(CCNc2nnc(Sc3nnnn3-c3ccccc3)s2)cc1OC", "activity score": "inactive: 120%"}, {"compound": "COc1ccccc1NC(=O)Cn1cnc2c(oc3ccccc32)c1=O", "activity score": "inconclusive: -57.8%"}, {"compound": "Cc1ccc(NC(=O)COC(=O)c2cccc3c2C(=O)c2ccccc2C3=O)c(C)c1", "activity score": "inactive: 51.7%"}, {"compound": "Cc1ccc(CSc2nnc(SCC(=O)N/N=C/c3ccccc3OCC(=O)O)s2)cc1", "activity score": "inactive: 61.7%"}, {"compound": "Cc1cc2nc(C3CCN(Cc4nnnn4Cc4ccccc4)CC3)[nH]c2cc1C", "activity score": "inactive: 74.2%"}, {"compound": "N#CCCn1cc(/C=N/O)c(-c2ccc(-c3ccccc3)cc2)n1", "activity score": "inconclusive: -60.9%"}, {"compound": "Cc1cc(C(=O)COc2ccccc2[N+](=O)[O-])c(C)n1C1CC1", "activity score": "active: -131%"}, {"compound": "CCC1=Nc2cc(C(=O)NCC3CCCO3)ccc2Sc2ccc(Br)cc21", "note": "(stereo unspecified)", "activity score": "inconclusive: -59.4%"}, {"compound": "COc1ccc(Cc2nc3ccc(C(=O)N4C[C@@H](C)O[C@@H](C)C4)cc3o2)cc1OC", "activity score": "inconclusive: -59.6%"}, {"compound": "CC(=O)c1cc(O)c2ccccc2c1O", "activity score": "inconclusive: -49.8%"}, {"compound": "COC(=O)c1cccc(NC(=O)/C=C/c2ccc3c(c2)OCO3)c1", "activity score": "inactive: 102%"}, {"compound": "N#CCc1ccc(OC(=O)c2cccnc2Cl)cc1", "activity score": "inconclusive: -59.3%"}, {"compound": "COc1ccccc1C(=O)NC(=S)N1CCCc2ccccc21", "activity score": "active: -167%"}, {"compound": "CCCCNC(=O)N(C)c1nc2ccccc2s1", "activity score": "active: -133%"}, {"compound": "CCN(CC)CCN1C(=O)/C(=C\\c2ccc(Cl)c([N+](=O)[O-])c2)SC1=Nc1ccc(OC)cc1", "activity score": "inactive: 73.8%"}, {"compound": "O=C(Nc1ccc(NC(=O)c2ccco2)nc1)c1cccc(F)c1", "activity score": "active: -134%"}, {"compound": "CC(/C=N/N1CCN(c2ccccc2)CC1)=C\\c1ccccc1", "activity score": "inconclusive: -51.9%"}, {"compound": "Cc1cccn2c(=O)c3cc(C(=O)NCC4CCCO4)c(=N)n(CCc4ccccc4)c3nc12", "note": "(stereo unspecified)", "activity score": "active: -101%"}, {"compound": "O=C(Nc1ccc2ccccc2c1)c1ccccc1F", "activity score": "inconclusive: -51.1%"}, {"compound": "COc1ccc(/C=C2\\SC(=S)N(CCCC(=O)NC3CCCC3)C2=O)cc1OC", "activity score": "inactive: 83.7%"}, {"compound": "Cc1cccc(-n2c(C)cc(C=C3C(=O)c4ccccc4C3=O)c2C)c1", "activity score": "active: -90.6%"}, {"compound": "COc1ccc(C(=O)CC(=O)Nc2ccc([N+](=O)[O-])cc2)cc1", "activity score": "inconclusive: -50.5%"}, {"compound": "COc1ccc(-c2cc3c(=O)n(CC(=O)NCCCN4CCC(Cc5ccccc5)CC4)ncn3n2)cc1", "activity score": "inactive: 96.4%"}, {"compound": "Cc1ccc(/C=C(\\C#N)C(=O)Nc2ccccn2)o1", "activity score": "active: -164%"}, {"compound": "Cc1cccc(OCC(=O)Nc2cc(C)c(C)cc2O)c1", "activity score": "active: -112%"}, {"compound": "CCCNC(=O)c1ccc2c(=O)c(O)c(-c3cccc(Br)c3)[nH]c2c1", "activity score": "inactive: 83.7%"}, {"compound": "Cn1ccnc1SCC(=O)c1cccc(Br)c1", "activity score": "inconclusive: -57%"}, {"compound": "S=C(NN=C(C1CC1)C1CC1)Nc1ccccc1", "activity score": "active: -63.2%"}, {"compound": "CCc1c(C(=O)Nc2ccc(OC)c(Cl)c2)[nH]c(C)c1C(C)=O", "activity score": "inconclusive: -39.5%"}, {"compound": "CCC(=O)c1ccc(OCCSc2ncccn2)cc1", "activity score": "inconclusive: -55.5%"}]}]}
